# The whole screen tested about 310,000 compounds, of which about 18,000 (5.8%) were called active. Inconclusive means that the source gave no clear call. Such entries were picked first, then a sample of the others. Calls follow the shape of the dose curve; as a rule, active = well fitted inhibition curve with a large enough effect; inconclusive = small, poorly fitted or top-dose-only effect, or another doubt; inactive = no such curve, though single readings can be large or run the other way. No potency is given beside an inconclusive call; the fits are too rough.
# Assay: Primary qHTS for delayed death inhibitors of the malarial parasite plastid, 48 hour incubation
# Conditions: P. falciparum luciferase growth in erythrocytes; series mostly up to 28.7 µM
# Outline: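 Growth was read as firefly luciferase luminescence after a 48 h, 37 C, 5% CO2 exposure of compounds to reporter-bearing P. falciparum cultures (0.1% parasitemia, 2% hematocrit final) in Albumax-supplemented RPMI 1640.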
# % is scaled to controls: 0 for no effect and ±100 for the full control effect; potency is read from the fitted curve at half-maximal effect; tags tell the direction and shape of the fitted curve.
SMILES,Potency,"activity change, negative = inhibition"
CCOc1ccc(CN2CCNC(=O)C2CC(=O)NCCc2ccccn2)cc1 (stereo unspecified),inactive,
COc1ccc(-c2oc3ccccc3c(=O)c2OC(=O)c2ccc(C)cc2)cc1,"inconclusive [inhibitor, partial curve, poor fit]",
CCOC(=O)C(C)Oc1cccc2c(=O)n(CC(=O)N3CCc4ccccc43)ccc12 (stereo unspecified),"inconclusive [inhibitor, single point]",
C/C(=N\Nc1nc(C)c(C)s1)c1ccc([N+](=O)[O-])cc1,"inconclusive [inhibitor, single point]",
C=CCn1c(O)c(N=Nc2nc3ccccc3c(=O)n2-c2ccccc2)c2ccccc21,inactive,
CC(C)(C)OC(=O)NCCCCCNC(=O)c1[nH]cnc1C(=O)Nc1cccc(Cl)c1,"inconclusive [inhibitor, partial curve, poor fit]",
O=C(Nc1ccc(C(=O)N2CCOCC2)cc1)c1cccs1,inactive,
CC(C)C(NC(=O)CSCc1ccc([N+](=O)[O-])cc1)C(C)C,"inconclusive [inhibitor, single point]",
Cc1cccc(NC(=O)CSc2nc3nc4c(cc3c(=O)n2-c2ccccc2)CCCC4)c1,active: 5.22 µM,
Fc1ccc(Oc2cc(N3CCOCC3)nc(-c3ccccc3)n2)c(F)c1,"inconclusive [inhibitor, single point]",
Cc1onc(-c2c(Cl)cccc2Cl)c1C(=O)Nc1ccc(N2CCOCC2)cc1,"inconclusive [inhibitor, full curve, poor fit]",
CNC(=S)Nc1cccc2[nH]ncc12,inactive,
CCC[C@@H](CN[C@@H](CNC)C(C)C)NCCCCc1ccccc1,"inconclusive [inhibitor, full curve]",
CC1(C)Oc2ccc3ccc(=O)oc3c2C(N2CCCCC2)C1O (stereo unspecified),"inconclusive [inhibitor, single point]",
O=C1Nc2ccccc2C1Cc1nc2ccccc2c(=O)n1-c1ccccc1 (stereo unspecified),"inconclusive [inhibitor, single point]",
CC(Oc1ccc(F)cc1)C(=O)Nc1ccccc1C(=O)NC1CC1 (stereo unspecified),"inconclusive [inhibitor, single point]",
COC(=O)[C@H](CC(C)C)NC(=O)Nc1ccccc1F,inactive,
COc1ccc2c(c1OC)C(=O)N1c3ccccc3C(=O)N(c3ccc(F)cc3)C21 (stereo unspecified),"inconclusive [inhibitor, partial curve]",
O=C(O)CCNc1nc(-c2ccccc2)c2cc(Br)ccc2n1,inactive,
O=C(CCCn1ncn2c(cc3occc32)c1=O)NCc1ccccc1F,inactive,
CCC1CCCCN1CCCNC(=O)C(C)n1nc(C)c2sc3ccccc3c2c1=O (stereo unspecified),"inconclusive [inhibitor, single point]",
COc1ccc(C(C)(C)C)cc1S(=O)(=O)n1ccnc1C,"inconclusive [inhibitor, partial curve, poor fit]",
C=CC[n+]1c(-c2ccc(Cl)cc2Cl)csc1Nc1ccc(NC(C)=O)cc1,"inconclusive [inhibitor, partial curve, poor fit]",
CNC(=O)c1c(NC(=O)c2ccc3ncsc3c2)sc(C)c1C,"inconclusive [inhibitor, single point]",

SMILES,Potency,"activity change, negative = inhibition"
O=C(CCNC(=O)c1ccc(Cl)cc1)NN1C(=O)NC2(CCCCC2)C1=O,"inconclusive [inhibitor, single point]",
Cc1nc2ccccc2n1C(=O)N(C)C,"inconclusive [inhibitor, full curve, poor fit]",
O=C(NCc1cccnc1)/C(=C/c1ccc(-c2ccc(Cl)cc2)o1)S(=O)(=O)c1ccccc1,active: 6.57 µM,
Cc1ccc(OCCNC(=O)c2ccc3c(c2)OCO3)cc1,"inconclusive [inhibitor, partial curve, poor fit]",
Cc1c(-c2cccc(NC(=O)c3cccs3)c2)nc2ncccn12,"inconclusive [inhibitor, single point]",
O=C(NC(Cc1ccccc1)C(=O)O)/C(=C\c1ccco1)NC(=O)c1ccco1 (stereo unspecified),inactive,
CC1=C(C(=O)OC2CCCCC2)C(c2ccc(O)cc2)NC(=O)N1 (stereo unspecified),inactive,
CCC(=O)Nc1c(C(=O)Nc2ccc3c(c2)OCCO3)oc2ccccc12,inactive,
CCc1noc(C)c1C(=O)NNC(=O)COc1ccc(Br)cc1,"inconclusive [inhibitor, partial curve, poor fit]",
Cc1cc2cc(CNC(=S)NC3CCCCC3)ccc2n1C,"inconclusive [inhibitor, full curve, poor fit]",
Cc1ccc(-c2nc(SCC(=O)NCCN3C(=O)CSC3=O)[nH]c2-c2ccc(C)cc2)cc1,"inconclusive [inhibitor, single point]",
COc1cccc(OCc2cc(C(=O)N(Cc3ccccc3)CC3CC3)no2)c1,inactive,
Cc1cc(C)c(S(=O)(=O)NCCn2c(C)cc3ccccc32)c(C)c1,"inconclusive [inhibitor, single point]",
CCOC(=O)c1c(C)oc2ccc(O)c(CN3CCCCC3)c12,active: 11.7 µM,
COc1ccc(/C(C)=N/NC(=O)c2ccncc2)cc1[N+](=O)[O-],inactive,
CCOc1ccc(NC(=O)CCC(=O)NNC(=O)Nc2cccc(Cl)c2)cc1,inactive,
Cc1ccc(C)c(S(=O)(=O)N2CCN(C(=O)/C=C/c3ccco3)CC2)c1,"inconclusive [inhibitor, single point]",
CCCN(CC1CC1)C(=S)NC(=O)c1cc(Br)ccc1Cl,active: 13.1 µM,
CSCCC(NC(=O)c1ccccc1)C(=O)Nc1ccc(C)cc1 (stereo unspecified),inactive,
COc1cccc(C(=O)N/N=C(\C)c2ccc(NC(=O)Cc3ccccc3)cc2)c1OC,"inconclusive [inhibitor, partial curve]",
O=c1n(Cc2ccccc2Cl)c2sc3c(c2c2ncnn12)CCCC3,"inconclusive [inhibitor, full curve, poor fit]",
O=C(Nc1ccccc1-c1ccccc1)C(=O)Nc1ccccc1-c1ccccc1,inactive,
CC1CN(c2nc3ccccc3nc2SCC(=O)Nc2ccc(F)cc2)CC(C)O1 (stereo unspecified),"inconclusive [inhibitor, partial curve]",
CC1CCCC(C)N1C(=O)COC(=O)c1cc(-c2cccs2)nn1-c1ccccc1 (stereo unspecified),"inconclusive [inhibitor, single point]",

SMILES,Potency,"activity change, negative = inhibition"
O=C(CSc1ccc(-c2ccc(Br)cc2)nn1)NC1CCCC1,"inconclusive [inhibitor, single point]",
Cc1ccc(CN2CCN(Cc3cccc(-n4cccn4)c3)CC2CCO)cc1 (stereo unspecified),inactive,
CC(C)Cc1nc(SCC(=O)N2CCCC2)c2c(=O)n(C)c(=O)n(C)c2n1,inactive,
c1ccc(NC(c2ccccc2)c2ccncc2)cc1 (stereo unspecified),active: 9.28 µM,
COc1cccc(CNC(=O)C2CSC3(C)CCC(=O)N23)c1 (stereo unspecified),"inconclusive [inhibitor, single point]",
Cc1cc(OC(C)C(=O)Nc2cccnc2)ccc1Cl (stereo unspecified),"inconclusive [inhibitor, partial curve, poor fit]",
O=S(=O)(c1ccc(Oc2ccccc2)cc1)N1CCOCC1,inactive,
COc1ccc(S(=O)(=O)N2CCOCC2)cc1NC(=O)COc1ccccc1,"inconclusive [inhibitor, partial curve, poor fit]",
O=C1c2cccc3c([N+](=O)[O-])ccc(c23)C(=O)N1O,,inactive: 1.32% [at 0.00184 µM]
Cc1cccc(NC(=O)CSc2nnc(CNC(=O)c3ccc(S(=O)(=O)N(C)C)cc3)n2-c2cccc(C)c2)c1,"inconclusive [inhibitor, partial curve, poor fit]",
CCN1CCCC1CNS(=O)(=O)c1cc(Br)cc2c1N(C(=O)C1CC1)CC2 (stereo unspecified),inactive,
Cc1cccc2cc(CN(Cc3cccnc3)C(=O)c3ccccc3F)c(Cl)nc12,"inconclusive [inhibitor, full curve]",
Cc1ccc(NC(=S)Nc2c(C)n(C)n(-c3ccccc3)c2=O)cc1Cl,inactive,
CC(NCc1ccc(Cl)cc1)C(O)c1ccccc1 (stereo unspecified),active: 2.62 µM,
CC(Sc1nnnn1-c1ccccc1)C(=O)Nc1ccccc1-c1ccccc1 (stereo unspecified),"inconclusive [inhibitor, partial curve]",
COc1ccc(NC(=O)CSc2ccccc2)cc1S(=O)(=O)N1CCOCC1,inactive,
O=C(CCc1ccccc1)N1CCN(Cc2ccc(F)cc2Cl)CC1,"inconclusive [inhibitor, full curve, poor fit]",
O=C(CN1CCN(S(=O)(=O)c2ccc(Cl)cc2)CC1)Nc1ccc2c(c1)OCO2,"inconclusive [inhibitor, single point]",
CC(C)COC(=O)C(C#N)c1nc2ccccc2nc1N1CCN(Cc2ccccc2)CC1 (stereo unspecified),"inconclusive [inhibitor, full curve]",
Cc1ccc(NC(=O)COc2ccccc2C#N)cc1S(=O)(=O)N1CCCCCC1,"inconclusive [inhibitor, single point]",
CCOC(=O)c1oc2cccc(OC(C)=O)c2c1C,inactive,
COc1cccc(-n2c(SCC(=O)NC(C)(C)C)nnc2-c2ccoc2C)c1,"inconclusive [inhibitor, partial curve]",
Cc1cccc(NC(=O)COc2ccc(Br)cc2/C=N/O)c1,inactive,

# — PubChem BioAssay AID504832 (National Center for Advancing Translational Sciences (NCATS), 2011)
